# The supplement of paper PMC11417369
# Some of the results follow.
# System: PfAP2-HC AP2 domain (GST-tagged)
# Test: gcPBM binding intensity (ln(normalized median fluorescence intensity)); higher = stronger DNA binding
# Procedure, shortened: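 Plasmodium falciparum DNA-binding domains carrying a GST tag were expressed in E. coli and applied for 1 h, at about 25 μg on average, to an Agilent 4 × 180k array. The array held primer-extended double-stranded 36-bp intergenic genomic probes together with negative controls, and binding took place in 1× PBS with 1% milk, 0.2 mg/ml BSA, 0.5% salmon testes DNA and 0.03% Triton X-100. An Alexa488 anti-GST antibody detected bound protein, and the array was scanned at 488 nm. Binding intensity is taken as the highest Masliner-normalised natural-log median intensity across replicate spots of either probe orientation.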
row,Sequence,gcPBM binding intensity (ln)
1,AACATATATTTTGAAACACACACATATATAATATAC [CACACA_site8301],10.1
2,AAAGAAAGAAAGAATACACACACACCGATATATATA [CACACA_site9246],10.3
3,TTTTATATATAATTCACACAAAAAAGATACATAAGA [CACACA_site5332],9.55
4,TAAGCAAAAATAATTACACACAAATTTATAAAAAAT [CACACA_site3377],9.9
5,ATTTTGTTTTTTTTTGCACACCATAAGGAGTGTAGG [CACACA_site1414],9.74
6,ATAAAAATATAATTGAGTACATATGAATAGTCCTAT [XGTACX_site6281],9.57
7,ACAACACATATTCATCGTACATGTATTAGGAAGACA [XGTACX_site1859],9.8
8,TATATAAAAATATGTTGTACGCATTTATAAATATAT [XGTACX_site3758],9.55
9,ATTTTTTTTTTTTTTTTTTTTTTTTTTGAATTCACA [CACACA_negctrl_site982],9.2
10,TATTTTTATTTATAACGTACGAAAAATGTATATAAT [XGTACX_site703],9.5
11,GGTGTATGTTAAAGGAGTACATATATATATATATAT [XGTACX_site7727],9.69
12,CATACACATTTCATATGTACATAGATTGAAGGGAAG [XGTACX_site116],9.88
13,TAGTATTTATATGTTATATATATAAAATAATACAGT [XGTACX_negctrl_site571],9.75
14,ATATCTAATAAAAATACACACACATATGATTTGTGA [CACACA_site8558],10
15,TATATAGAATTATATGCATGTTCAAAAAAATACAAC [TGCATGCA_site431],9.8
16,TTCTATTTTTTAAAAGTGCATATTATAAATATATAT,9.52
17,AATAGTTCTTGAACGTGTACATAAAATATAATTTAC [XGTACX_site11],9.63
18,GAAATCTAAATAGAAACACACATATATAAATAAATA [CACACA_site7762],9.86
19,TAAGGAAAAAGAAAAAGTACATTATATAATAAATAG [XGTACX_site3282],9.65

row,Sequence,gcPBM binding intensity (ln)
1,CAAATATATGTTTTCACACACAAAAGAAATGAAACC [CACACA_site2162],9.92
2,AAAAAAAATAAAATGAATAAATAAGAATTACATATT [CACACA_negctrl_site863],9.56
3,GGATAGATCATTTACACACACAAAAAAAAAAAAAAA [CACACA_site2139],9.81
4,ATAATATATTATTATAGTACTTTATTTTATTTTATG [XGTACX_site2387],9.71
5,AATATATATATACATACATGCATACATATATATATA [TGCATGCA_site784],9.67
6,AAAAAGAAGATATATACACACCAAAAAAAAAAAAAA [CACACA_site7471],9.61
7,ATATGATGTAAAAGCACACATATATATATATATATA [CACACA_site4018],9.69
8,TACTATAAAATGGAATGTACACATAAATATATCTAA [XGTACX_site6137],9.64
9,GTTTATAACTATGTGTGTACACATTAATCGTTTTTC [XGTACX_site4364],10.1
10,AATATATTTATATAGTGTACATTTTTTATATATGTA [XGTACX_site8142],9.55
11,TATTAATTTTTATTATGTACATAAATAATTTATATT [XGTACX_site5456],9.63
12,CACATACACATACACATACACACGCATAGAAACATA [CACACA_site2136],10.5
13,TTGTATAAATATGTATGTATATAATATATGTAAAGA [TGCATGCA_negctrl_site93],9.78
14,AAATCGTGTACATTGACACACATAATTTTTTTTATA [CACACA_site2463],9.68
15,TAAAAAACTTCGTGTTCACACATGTACTATATTATT [CACACA_site4796],9.73
16,ACCCATAAGATAATTACACACAATACATCCCTATAT [CACACA_site5262],9.97
17,TTTTTTTTTTTTTGTTGTACATTAAATATATTATTA [XGTACX_site7254],9.61
18,AAGCATATTATAAACACACACTGTATAAAGATATAT [CACACA_site6277],10.1
19,AAGTATAACCTTTATAATAATGACATGACCGATTTT [CACACA_negctrl_site395],9.65

row,Sequence,gcPBM binding intensity (ln)
1,ATATAACGAATAATTACACACTATAAAAAAAGATCT [CACACA_site2862],9.99
2,TATAACCGAATGTGTACACAAAATAATGTTATATAT [CACACA_site5627],9.92
3,ATAATACGAATTTGTAGTACATTTATAATAACATGA [XGTACX_site2614],9.62
4,CTTTTAAATTATTTTTGTACATAATTATATATATAT [XGTACX_site4128],9.7
5,AACTATAAATATAAATGTACACATATGTAATATATA [XGTACX_site6085],9.84
6,AAAAGGAAAATTTTCTTAGTAACTGCATTAAGAGAT [GTGCAC_negctrl_site675],9.71
7,TACTGTTTAAAATATAAACACACATTGTTTGCTTTA [CACACA_site8358],9.91
8,TTTTAATAACCAATCCGTACATATAATCTTTATATT [XGTACX_site536],9.59
9,TGGAAAAATAGGCACACACACATATATACATATATA [CACACA_site1297],10.5
10,TAAAAGTTATAAGAGTGTACGTATATTTATATATCA [XGTACX_site2972],9.63
11,TGAAAAATTACAAAAATAATAAAATGAAATAATAAA [GTGCAC_negctrl_site53],9.64
12,TTATTATATTCTCCTTCACACACAAAAATATTTCAT [CACACA_site8738],10.2
13,AGGACTAATATTTGAACACACATATAACATATACAT [CACACA_site7803],9.93
14,CCTCTTTATTTTAATTGTACATTTTTGTAGGTTTTT [XGTACX_site7130],9.94
15,AAAACAAACCCATTTACACACATAAATAAATCAATT [CACACA_site6126],9.99
16,ATGTATATATATATATGTACTAATTAGTAATTTACG [XGTACX_site6276],9.92
17,TCCTTTTTTTTGTAATGTACTTAGTTTGGTTATATG [XGTACX_site8208],9.78
18,TATTTACATGTAAAAGGTACACACATTATATATACA [XGTACX_site2157],9.86
